Test results published in ChEMBL document CHEMBL4888484, “Replenishing the malaria drug discovery pipeline: Screening and hit evaluation of the MMV Hit Generation Library 1 (HGL1) against asexual blood stage Plasmodium falciparum ,using a nano luciferase reporter read-out” (2022).
Hit rate of the full screen: of about 150,000 compounds, about 540 (0.36%) showed an effect of 50% or more. The list shows a part of the results.

tested on: Plasmodium falciparum; assay: Primary screen in NF54 nanoGlo assay, in single point, at 2uM, 72h; a lower Z score goes with more inhibition; format: functional, Erythrocyte; conditions: timepoint 72 hour

Compound	% Inhibition [%]	Z score
COc1ccccc1[C@H]1CCN(S(=O)(=O)c2cc(Cl)ccc2C)C1	-6	0.64
O=S(=O)(CC1CC(F)(F)C1)NC1CCC1	-6	0.91
O=C(O)C1C2C=CC(C2=C(c2ccccc2)c2ccccc2)C1C(=O)Nc1ccccn1 (stereo not given)	-16	1.91
CN(C)[C@H]1[C@@H]2CC[C@H]1CN(C(=O)c1cccc(Oc3ccccc3)c1)C2	-5	1.15
CC(C)Oc1cc(N2N=CCCN(C)C2=O)c(F)cc1Cl	-47	5.48
CS(=O)(=O)Cc1ccc(-c2cccc3ccnn23)nc1	5	-1.01
CN(C)[C@H]1[C@@H]2CC[C@H]1CN(Cc1cnc(NCc3ccccc3)nc1)C2	11	-1.47
CN1CN(Cc2nsc(N(C)C)n2)CC1=O	2	-0.3
CCOCc1nc(CCc2c(C)n[nH]c2C)n(C)n1	-9	1.54
Cc1cnc([C@H]2CCCN(C(=O)c3noc4c3CCCC4)C2)s1	-9	1.41
C=C[C@@H]1CCCCN1C(=O)CC(F)(F)F	-17	1.67
Cc1ccc(C(=O)NC[C@@H](CO)CC2CCCCC2)cn1	-17	2.19
O=C(c1nc2ccc(Cl)cn2c1CN1CCC[C@H]1CO)N1CCCCCCC1	-2	0.24
COCCN(Cc1nccs1)C(=O)NC[C@H](C)N1CCN(C)CC1	-1	0.25
COc1ccc(-c2cc3ncc(C(=O)c4cc(Cl)ccc4O)cn3n2)cc1	46	-5.26
CN(C)c1ccc(NC(=O)C2CN(S(C)(=O)=O)C2)cc1	-21	3.3
CCCCOC(=O)N1CCC2(CCC(=O)N(CCc3c[nH]cn3)C2)CC1	-7	0.95
COC[C@H](C)NC(=O)Nc1ccc(Cl)c(C#N)c1	-11	0.97
COC[C@H]1CCCN1C[C@@H]1OC[C@H](NC(=O)CC(C)(C)C)[C@H]1O	33	-3.68
O=C(NCCOCC(F)(F)F)c1nc(-c2ccccc2)ns1	16	-2.12
COC(=O)N1CCc2ccc(Br)cc2[C@@H]1C(=O)Nc1cccc(C(C)=O)c1	-5	0.81
Cc1nc(CC(C)C)c(NC(=O)C2CC(C)(O)C2)s1 (stereo not given)	-8	1.6
COc1ccc(-c2oncc2C(=O)NC[C@H]2CCCN3CCCC[C@@H]23)cc1	8	-1.11
O=C(c1ccc(S(=O)(=O)N2CCCCC2)cc1)N1CCC[C@H]1c1nc2ccccc2s1	5	-0.65
C[C@H](OC(=O)Cn1cnc2c1c(=O)n(C)c(=O)n2C)C(=O)Nc1ccc(F)cc1	-10	0.99
O=C(Cn1ncc2ccc(Cl)cc21)NC1CCCCC1	-10	1.43
O=C1C2C(C(=O)N1Cc1ccc(F)cc1)C1C=CC2C12CC2 (stereo not given)	-5	0.65
CC(=O)Nc1[nH]c(-c2ccccc2)cc1C(C)=O	-11	2.07

Compound	% Inhibition [%]	Z score
C[C@H]1CCCN(Cc2cccc(C(=O)Nc3cnn4c3NCCC4)c2)C1	-16	2.81
C#Cc1cccc(NCc2cnc3cnccn23)c1	-15	2.43
Cc1csc2nc(Cn3cc(S(=O)(=O)N(C)C)cn3)cc(=O)n12	-4	0.58
CCn1cnnc1[C@@H]1CCCCN1S(=O)(=O)c1cccc(OC)c1	-17	1.95
Cc1ccc(NC(=O)c2coc(NC(=O)c3ccsc3)n2)cc1F	-1	0.09
COCC(=O)Nc1ccn2nccc2c1	-11	1.75
O=C(CC1CCCCC1)N1CC[C@H](Cc2nnc(C3CC3)[nH]2)C1	-3	0.43
Cn1c(=O)c2ccn(CC(=O)NCc3ccccc3)c2n(C)c1=O	-16	1.61
O=C(Cc1ccc(F)cc1)N[C@@H](Cc1ccccc1)c1nnc(N2CCCCC2)o1	9	-0.98
CC(C)c1noc([C@H]2CC(=O)N(c3ccc4c(c3)CCC4)C2)n1	0	0.05
CCn1nc(C)cc1-c1cn2c(n1)CCCC2	-12	1.71
CC(C)(C)c1ccc(C(=O)NCC2CCCC2NS(C)(=O)=O)s1 (stereo not given)	-4	0.62
OCC1CC(N[C@H](c2ccc(F)cc2)c2ccc(Cl)s2)C1 (stereo not given in full)	-3	0.46
C=CCN=C(NCCCS(=O)(=O)Cc1ccccc1)N1CCCC1	-9	1.22
Cn1cc(CCNC(=O)N(Cc2cccnc2)C2CCCCC2)cn1	3	-0.62
Cc1cncc(C(=O)N2CCN(Cc3ccccn3)[C@@H]3CS(=O)(=O)C[C@@H]32)c1	2	-0.27
O=C(O)c1ccc2c(c1)C(=O)N(c1cnc(-c3ccccc3)s1)C2=O	-4	0.8
Cc1cc(C(=O)NCc2nc(C)c(C(=O)O)s2)c(C)s1	0	0.02
Cc1ccc(OCC(=O)NCc2ccccc2)c(-n2cnnc2)c1	-14	1.84
NS(=O)(=O)N1CCN(C(=O)CC2Cc3ccccc3C2)CC1	-16	2.09
CO[C@@H](CNC(=O)CC1CC1)c1ccc(F)cc1	-5	0.74
CCCOc1nc(C)ccc1C(=O)NC	-13	1.8
O=C(NCCCn1ccnc1)C1CCC1	-12	2.2
Cc1cccc(OCC(=O)N2CCN(c3nnc(-c4ccon4)s3)CC2)c1C	-10	0.84
CCC[C@H]1CN(CC(=O)NC(C2CC2)C2CC2)CCN1CC(=O)NC(C1CC1)C1CC1	-15	2.15
CC(C)OC[C@@H](O)CN(Cc1c(-c2ccccc2)nn(C)c1Oc1ccc(Cl)cc1)CC1CC1	-3	0.27
NCC1(C(=O)Nc2nc(C3CC3)c(Cc3ccccc3F)s2)CCOCC1	0	0
